Publication PMC9911399, “Two distinct binding modes provide the RNA-binding protein RbFox with extraordinary sequence specificity”
Substitutions are numbered along the chain they refer to; changes in the protein carry UniProt numbers. Some of the results follow.

B1: AGGAGAC (DNA:RNA)
RNA: GGGAGACCGGAAUUCAGAUUGUCCAGGAGACUUAAAUCCCGUCGUAGCCACCA
DNA 1: CAATCTGAATTCCGGTCTCCC
DNA 2: TGGTGGCTACGACGGGATT
B2: AGGUGCC (DNA:RNA)
RNA: B1 RNA with A28U, A30C
DNA 1: CAATCTGAATTCCGGTCTCCC
DNA 2: TGGTGGCTACGACGGGATT
B3: CGACACG (DNA:RNA)
RNA: B1 RNA with A25C, G27A, A28C, G29A, A30C, C31G
DNA 1: CAATCTGAATTCCGGTCTCCC
DNA 2: TGGTGGCTACGACGGGATT
B4: AUUCGUA (DNA:RNA)
RNA: B1 RNA with G26U, G27U, A28C, A30U, C31A
DNA 1: CAATCTGAATTCCGGTCTCCC
DNA 2: TGGTGGCTACGACGGGATT
B5: UUCGCUA (DNA:RNA)
RNA: GGGAGACCGGAAUUCAGAUUGUCCUUCGCUAUUAAAUCCCGUCGUAGCCACCA
DNA 1: CAATCTGAATTCCGGTCTCCC
DNA 2: TGGTGGCTACGACGGGATT
B6: GCAGUUA (DNA:RNA)
RNA: B5 RNA with U25G, U26C, C27A, C29U
DNA 1: CAATCTGAATTCCGGTCTCCC
DNA 2: TGGTGGCTACGACGGGATT
B7: CGAUUGC (DNA:RNA)
RNA: B1 RNA with A25C, G27A, A28U, G29U, A30G
DNA 1: CAATCTGAATTCCGGTCTCCC
DNA 2: TGGTGGCTACGACGGGATT
B8: UAUUUCU (DNA:RNA)
RNA: B5 RNA with U26A, C27U, G28U, C29U, U30C, A31U
DNA 1: CAATCTGAATTCCGGTCTCCC
DNA 2: TGGTGGCTACGACGGGATT
B9: GGGUCGC (DNA:RNA)
RNA: B1 RNA with A25G, A28U, G29C, A30G
DNA 1: CAATCTGAATTCCGGTCTCCC
DNA 2: TGGTGGCTACGACGGGATT
B10: AUUGGGA (DNA:RNA)
RNA: B5 RNA with U25A, C27U, C29G, U30G
DNA 1: CAATCTGAATTCCGGTCTCCC
DNA 2: TGGTGGCTACGACGGGATT
B11: GAUCGGG (DNA:RNA)
RNA: B1 RNA with A25G, G26A, G27U, A28C, A30G, C31G
DNA 1: CAATCTGAATTCCGGTCTCCC
DNA 2: TGGTGGCTACGACGGGATT
B12: CCGGAUA (DNA:RNA)
RNA: B5 RNA with U25C, U26C, C27G, C29A
DNA 1: CAATCTGAATTCCGGTCTCCC
DNA 2: TGGTGGCTACGACGGGATT
B13: CGAAAGG (DNA:RNA)
RNA: B1 RNA with A25C, G27A, G29A, A30G, C31G
DNA 1: CAATCTGAATTCCGGTCTCCC
DNA 2: TGGTGGCTACGACGGGATT
B14: GAUUACU (DNA:RNA)
RNA: GGGAGACCGGAAUUCAGAUUGUCCGAUUACUUUAAAUCCCGUCGUAGCCACCA
DNA 1: CAATCTGAATTCCGGTCTCCC
DNA 2: TGGTGGCTACGACGGGATT
B15: UUCAUCC (DNA:RNA)
RNA: B5 RNA with G28A, C29U, U30C, A31C
DNA 1: CAATCTGAATTCCGGTCTCCC
DNA 2: TGGTGGCTACGACGGGATT
B16: GUCGAGG (DNA:RNA)
RNA: B5 RNA with U25G, C29A, U30G, A31G
DNA 1: CAATCTGAATTCCGGTCTCCC
DNA 2: TGGTGGCTACGACGGGATT
B17: GUGAAGA (DNA:RNA)
RNA: B1 RNA with A25G, G26U, G29A, A30G, C31A
DNA 1: CAATCTGAATTCCGGTCTCCC
DNA 2: TGGTGGCTACGACGGGATT
B18: CCGUGAG (DNA:RNA)
RNA: B1 RNA with A25C, G26C, A28U, C31G
DNA 1: CAATCTGAATTCCGGTCTCCC
DNA 2: TGGTGGCTACGACGGGATT
B19: GAGGGUU (DNA:RNA)
RNA: B14 RNA with U27G, U28G, A29G, C30U
DNA 1: CAATCTGAATTCCGGTCTCCC
DNA 2: TGGTGGCTACGACGGGATT
B20: UAGCCCG (DNA:RNA)
RNA: B14 RNA with G25U, U27G, U28C, A29C, U31G
DNA 1: CAATCTGAATTCCGGTCTCCC
DNA 2: TGGTGGCTACGACGGGATT
B21: AAUGCAG (DNA:RNA)
RNA: B1 RNA with G26A, G27U, A28G, G29C, C31G
DNA 1: CAATCTGAATTCCGGTCTCCC
DNA 2: TGGTGGCTACGACGGGATT
B22: CACGCGA (DNA:RNA)
RNA: B5 RNA with U25C, U26A, U30G
DNA 1: CAATCTGAATTCCGGTCTCCC
DNA 2: TGGTGGCTACGACGGGATT
B23: GGGGACU (DNA:RNA)
RNA: B14 RNA with A26G, U27G, U28G
DNA 1: CAATCTGAATTCCGGTCTCCC
DNA 2: TGGTGGCTACGACGGGATT
B24: GCCAAUC (DNA:RNA)
RNA: B1 RNA with A25G, G26C, G27C, G29A, A30U
DNA 1: CAATCTGAATTCCGGTCTCCC
DNA 2: TGGTGGCTACGACGGGATT
B25: CAGAAGG (DNA:RNA)
RNA: B1 RNA with A25C, G26A, G29A, A30G, C31G
DNA 1: CAATCTGAATTCCGGTCTCCC
DNA 2: TGGTGGCTACGACGGGATT
B26: CUUACUG (DNA:RNA)
RNA: B5 RNA with U25C, C27U, G28A, A31G
DNA 1: CAATCTGAATTCCGGTCTCCC
DNA 2: TGGTGGCTACGACGGGATT
B27: UGAGCUU (DNA:RNA)
RNA: B5 RNA with U26G, C27A, A31U
DNA 1: CAATCTGAATTCCGGTCTCCC
DNA 2: TGGTGGCTACGACGGGATT
B28: AGCUUUG (DNA:RNA)
RNA: B1 RNA with G27C, A28U, G29U, A30U, C31G
DNA 1: CAATCTGAATTCCGGTCTCCC
DNA 2: TGGTGGCTACGACGGGATT
B29: GCCACUC (DNA:RNA)
RNA: B5 RNA with U25G, U26C, G28A, A31C
DNA 1: CAATCTGAATTCCGGTCTCCC
DNA 2: TGGTGGCTACGACGGGATT
B30: UUUAACG (DNA:RNA)
RNA: B14 RNA with G25U, A26U, U28A, U31G
DNA 1: CAATCTGAATTCCGGTCTCCC
DNA 2: TGGTGGCTACGACGGGATT
B31: GCUUCCC (DNA:RNA)
RNA: B14 RNA with A26C, A29C, U31C
DNA 1: CAATCTGAATTCCGGTCTCCC
DNA 2: TGGTGGCTACGACGGGATT

What follows are binders tested against T1, RBFOX1 RRM (Homo sapiens, UniProt Q9NWB1 109-208) (assay: EMSA; HiTS-Eq, 1 nM pool, 10 min; buffer printed only for the single-RNA assays: 10 mM Tris pH 7.5, 150 mM NaCl, 3.4 mM EDTA, 0.001% NP-40, 30 C). Conditions: tags: His6 N-terminal (pET28a); label: 5' 32P.
T1 sequence: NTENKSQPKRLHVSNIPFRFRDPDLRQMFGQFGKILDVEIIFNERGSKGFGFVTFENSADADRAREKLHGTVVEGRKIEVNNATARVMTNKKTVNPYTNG
In short: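 Purified RbFox RRM, wild type or mutant, was incubated for 10 min in 50 µL with 1 nM of a 5′-radiolabelled RNA pool carrying 7 randomized nucleotides, whose flanks were annealed to DNA oligonucleotides, over a series of increasing protein concentrations. Unbound RNA was resolved on 8% native PAGE, cut out, reverse-transcribed, barcoded by PCR and sequenced on an Illumina HiSeq 2500. Relative association constants were derived from changes in read counts for each RNA species versus the control reaction and normalised to the cognate motif.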

Row | Binder | binding signal
1 | B1 | 0.00964 KA relative to UGCAUGU
2 | B2 | 0.0151 KA relative to UGCAUGU
3 | B3 | 0.0076 KA relative to UGCAUGU
4 | B4 | 0.00648 KA relative to UGCAUGU
5 | B5 | 0.0124 KA relative to UGCAUGU
6 | B6 | 0.0066 KA relative to UGCAUGU
7 | B7 | 0.0213 KA relative to UGCAUGU
8 | B8 | 0.0068 KA relative to UGCAUGU
9 | B9 | 0.0242 KA relative to UGCAUGU
10 | B10 | 0.00568 KA relative to UGCAUGU
11 | B11 | 0.00907 KA relative to UGCAUGU
12 | B12 | 0.00829 KA relative to UGCAUGU
13 | B13 | 0.0047 KA relative to UGCAUGU
14 | B14 | 0.00556 KA relative to UGCAUGU
15 | B15 | 0.00306 KA relative to UGCAUGU
16 | B16 | 0.0114 KA relative to UGCAUGU

Row | Binder | binding signal
17 | B17 | 0.0128 KA relative to UGCAUGU
18 | B18 | 0.0105 KA relative to UGCAUGU
19 | B19 | 0.021 KA relative to UGCAUGU
20 | B20 | 0.0123 KA relative to UGCAUGU
21 | B21 | 0.00831 KA relative to UGCAUGU
22 | B22 | 0.00357 KA relative to UGCAUGU
23 | B23 | 0.0239 KA relative to UGCAUGU
24 | B24 | 0.00618 KA relative to UGCAUGU
25 | B25 | 0.0092 KA relative to UGCAUGU
26 | B26 | 0.00968 KA relative to UGCAUGU
27 | B27 | 0.0173 KA relative to UGCAUGU
28 | B28 | 0.0178 KA relative to UGCAUGU
29 | B29 | 0.00506 KA relative to UGCAUGU
30 | B30 | 0.00766 KA relative to UGCAUGU
31 | B31 | 0.00968 KA relative to UGCAUGU
